Assay results taken from a compilation of properties of binary mixtures (doi:10.1039/c8ra04127j).
The densities may have been worked out from excess volumes.

Test: xn = mol fraction of the nth substance listed
Settings: 100 kPa

C[N+](C)(C)CCC[N+]1(C)CCCCC1.N#C[N-]C#N.N#C[N-]C#N + CC#N
mass density [kg/m3]
Settings	x1 = 0.0999	x1 = 0.2001	x1 = 0.3001	x1 = 0.3998	x1 = 0.5002	x1 = 0.6	x1 = 0.7001	x1 = 0.7996	x1 = 0.8998	x1 = 1
283.15 K	936.4	1003.8	1041.8	1065.1	1081.5	1093	1101.5	1108.1	1113.9	–
288.15 K	932.4	1000.3	1038.6	1062	1078.4	1090.1	1098.6	–	1111	1116
293.15 K	–	996.9	1035.4	1058.8	1075.4	1087.2	1095.7	1102.2	1108.1	–
298.15 K	924.4	993.4	–	1055.7	–	1084.3	1092.8	1099.4	1105.3	–
303.15 K	920.4	990	1029	–	1069.4	1081.4	1089.9	1096.5	1102.5	1107.6
308.15 K	–	986.6	–	–	–	1078.5	1087.1	1093.8	1099.7	1104.8
313.15 K	912.5	–	1022.7	1046.8	1063.6	1075.6	1084.3	1091	–	1102.1
318.15 K	–	–	1019.6	1043.8	–	1072.9	–	1088.2	1094.2	–
323.15 K	904.5	976.4	–	1040.9	1057.6	–	–	1085.5	1091.5	1096.7
328.15 K	900.5	–	1013.3	1037.9	–	–	1076	1082.9	1088.8	1094
333.15 K	896.6	969.7	1010.2	1035	–	1064.1	1073.2	1080.3	–	1091.4
